# Assay results reported in publication PMC9911399, “Two distinct binding modes provide the RNA-binding protein RbFox with extraordinary sequence specificity”.
# Numbering of substitutions follows the chain as printed; changes in the protein carry UniProt numbers. This is one part of the list.
# B1: CUCCAAG (DNA:RNA)
# RNA: GGGAGACCGGAAUUCAGAUUGUCCCUCCAAGUUAAAUCCCGUCGUAGCCACCA
# DNA 1: CAATCTGAATTCCGGTCTCCC
# DNA 2: TGGTGGCTACGACGGGATT
# B2: ACAGUUU (DNA:RNA)
# RNA: GGGAGACCGGAAUUCAGAUUGUCCACAGUUUUUAAAUCCCGUCGUAGCCACCA
# DNA 1: CAATCTGAATTCCGGTCTCCC
# DNA 2: TGGTGGCTACGACGGGATT
# B3: UCACAUC (DNA:RNA)
# RNA: B2 RNA with A25U, G28C, U29A, U31C
# DNA 1: CAATCTGAATTCCGGTCTCCC
# DNA 2: TGGTGGCTACGACGGGATT
# B4: UUUACUA (DNA:RNA)
# RNA: B2 RNA with A25U, C26U, A27U, G28A, U29C, U31A
# DNA 1: CAATCTGAATTCCGGTCTCCC
# DNA 2: TGGTGGCTACGACGGGATT
# B5: GAACGGA (DNA:RNA)
# RNA: B2 RNA with A25G, C26A, G28C, U29G, U30G, U31A
# DNA 1: CAATCTGAATTCCGGTCTCCC
# DNA 2: TGGTGGCTACGACGGGATT
# B6: UGACCAG (DNA:RNA)
# RNA: B1 RNA with C25U, U26G, C27A, A29C
# DNA 1: CAATCTGAATTCCGGTCTCCC
# DNA 2: TGGTGGCTACGACGGGATT
# B7: UAGUUCA (DNA:RNA)
# RNA: B2 RNA with A25U, C26A, A27G, G28U, U30C, U31A
# DNA 1: CAATCTGAATTCCGGTCTCCC
# DNA 2: TGGTGGCTACGACGGGATT
# B8: GUAAGCG (DNA:RNA)
# RNA: B1 RNA with C25G, C27A, C28A, A29G, A30C
# DNA 1: CAATCTGAATTCCGGTCTCCC
# DNA 2: TGGTGGCTACGACGGGATT
# B9: GGGCGGC (DNA:RNA)
# RNA: B1 RNA with C25G, U26G, C27G, A29G, A30G, G31C
# DNA 1: CAATCTGAATTCCGGTCTCCC
# DNA 2: TGGTGGCTACGACGGGATT
# B10: UCCCUAG (DNA:RNA)
# RNA: B1 RNA with C25U, U26C, A29U
# DNA 1: CAATCTGAATTCCGGTCTCCC
# DNA 2: TGGTGGCTACGACGGGATT
# B11: CCAUGGC (DNA:RNA)
# RNA: B2 RNA with A25C, G28U, U29G, U30G, U31C
# DNA 1: CAATCTGAATTCCGGTCTCCC
# DNA 2: TGGTGGCTACGACGGGATT
# B12: CCUGCAU (DNA:RNA)
# RNA: B2 RNA with A25C, A27U, U29C, U30A
# DNA 1: CAATCTGAATTCCGGTCTCCC
# DNA 2: TGGTGGCTACGACGGGATT
# B13: GAACGCU (DNA:RNA)
# RNA: B2 RNA with A25G, C26A, G28C, U29G, U30C
# DNA 1: CAATCTGAATTCCGGTCTCCC
# DNA 2: TGGTGGCTACGACGGGATT
# B14: CUGGCUG (DNA:RNA)
# RNA: B1 RNA with C27G, C28G, A29C, A30U
# DNA 1: CAATCTGAATTCCGGTCTCCC
# DNA 2: TGGTGGCTACGACGGGATT
# B15: CGGCCUA (DNA:RNA)
# RNA: B1 RNA with U26G, C27G, A29C, A30U, G31A
# DNA 1: CAATCTGAATTCCGGTCTCCC
# DNA 2: TGGTGGCTACGACGGGATT
# B16: UCGGAGU (DNA:RNA)
# RNA: B2 RNA with A25U, A27G, U29A, U30G
# DNA 1: CAATCTGAATTCCGGTCTCCC
# DNA 2: TGGTGGCTACGACGGGATT
# B17: CGUGAGU (DNA:RNA)
# RNA: B2 RNA with A25C, C26G, A27U, U29A, U30G
# DNA 1: CAATCTGAATTCCGGTCTCCC
# DNA 2: TGGTGGCTACGACGGGATT
# B18: UUGGUCC (DNA:RNA)
# RNA: B2 RNA with A25U, C26U, A27G, U30C, U31C
# DNA 1: CAATCTGAATTCCGGTCTCCC
# DNA 2: TGGTGGCTACGACGGGATT
# B19: UUCUACU (DNA:RNA)
# RNA: B1 RNA with C25U, C28U, A30C, G31U
# DNA 1: CAATCTGAATTCCGGTCTCCC
# DNA 2: TGGTGGCTACGACGGGATT
# B20: UUUUGAG (DNA:RNA)
# RNA: B1 RNA with C25U, C27U, C28U, A29G
# DNA 1: CAATCTGAATTCCGGTCTCCC
# DNA 2: TGGTGGCTACGACGGGATT
# B21: GGCGUAC (DNA:RNA)
# RNA: B2 RNA with A25G, C26G, A27C, U30A, U31C
# DNA 1: CAATCTGAATTCCGGTCTCCC
# DNA 2: TGGTGGCTACGACGGGATT
# B22: UAUCGAU (DNA:RNA)
# RNA: B1 RNA with C25U, U26A, C27U, A29G, G31U
# DNA 1: CAATCTGAATTCCGGTCTCCC
# DNA 2: TGGTGGCTACGACGGGATT
# B23: AACGCCG (DNA:RNA)
# RNA: B2 RNA with C26A, A27C, U29C, U30C, U31G
# DNA 1: CAATCTGAATTCCGGTCTCCC
# DNA 2: TGGTGGCTACGACGGGATT
# B24: AUCUGAC (DNA:RNA)
# RNA: B1 RNA with C25A, C28U, A29G, G31C
# DNA 1: CAATCTGAATTCCGGTCTCCC
# DNA 2: TGGTGGCTACGACGGGATT
# B25: GUCGAGU (DNA:RNA)
# RNA: B1 RNA with C25G, C28G, A30G, G31U
# DNA 1: CAATCTGAATTCCGGTCTCCC
# DNA 2: TGGTGGCTACGACGGGATT
# B26: GAAGCCC (DNA:RNA)
# RNA: B2 RNA with A25G, C26A, U29C, U30C, U31C
# DNA 1: CAATCTGAATTCCGGTCTCCC
# DNA 2: TGGTGGCTACGACGGGATT
# B27: AACAUUC (DNA:RNA)
# RNA: B2 RNA with C26A, A27C, G28A, U31C
# DNA 1: CAATCTGAATTCCGGTCTCCC
# DNA 2: TGGTGGCTACGACGGGATT
# B28: CCGUAUU (DNA:RNA)
# RNA: B2 RNA with A25C, A27G, G28U, U29A
# DNA 1: CAATCTGAATTCCGGTCTCCC
# DNA 2: TGGTGGCTACGACGGGATT
# B29: GAAACCA (DNA:RNA)
# RNA: B2 RNA with A25G, C26A, G28A, U29C, U30C, U31A
# DNA 1: CAATCTGAATTCCGGTCTCCC
# DNA 2: TGGTGGCTACGACGGGATT
# B30: GAGCAAU (DNA:RNA)
# RNA: B1 RNA with C25G, U26A, C27G, G31U
# DNA 1: CAATCTGAATTCCGGTCTCCC
# DNA 2: TGGTGGCTACGACGGGATT
# B31: AUGAGGC (DNA:RNA)
# RNA: B2 RNA with C26U, A27G, G28A, U29G, U30G, U31C
# DNA 1: CAATCTGAATTCCGGTCTCCC
# DNA 2: TGGTGGCTACGACGGGATT
# Target: T1, RBFOX1 RRM RbFoxmut (Fox-RRM*) (Homo sapiens, UniProt Q9NWB1 109-208, R118D;E147R;N151S;E152T)
# T1 sequence: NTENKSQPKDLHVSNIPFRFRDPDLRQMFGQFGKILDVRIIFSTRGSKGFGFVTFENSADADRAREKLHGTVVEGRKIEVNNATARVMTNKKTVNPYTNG
# Test: EMSA; HiTS-Eq, 1 nM pool, 10 min; buffer printed only for the single-RNA assays: 10 mM Tris pH 7.5, 150 mM NaCl, 3.4 mM EDTA, 0.001% NP-40, 30 C
# Details: tags: His6 N-terminal (pET28a); label: 5' 32P
# In short: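 Purified wild-type or mutant RbFox RRM at increasing concentrations was equilibrated with 1 nM of 5′-radiolabelled RNA carrying 7 randomized nucleotides for 10 min in 50 µL. Unbound RNA was separated by 8% native PAGE and sequenced. Relative association constants came from read-count changes of each RNA species compared with the control reaction, normalised to the cognate motif.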
row,Binder,binding signal
1,B1,0.112 KA relative to UGCAUGU
2,B2,0.0846 KA relative to UGCAUGU
3,B3,0.0791 KA relative to UGCAUGU
4,B4,0.12 KA relative to UGCAUGU
5,B5,0.0858 KA relative to UGCAUGU
6,B6,0.0694 KA relative to UGCAUGU
7,B7,0.137 KA relative to UGCAUGU
8,B8,0.118 KA relative to UGCAUGU
9,B9,0.0913 KA relative to UGCAUGU
10,B10,0.131 KA relative to UGCAUGU
11,B11,0.0829 KA relative to UGCAUGU
12,B12,0.139 KA relative to UGCAUGU
13,B13,0.135 KA relative to UGCAUGU
14,B14,0.431 KA relative to UGCAUGU
15,B15,0.0776 KA relative to UGCAUGU
16,B16,0.104 KA relative to UGCAUGU

row,Binder,binding signal
1,B17,0.156 KA relative to UGCAUGU
2,B18,0.131 KA relative to UGCAUGU
3,B19,0.0829 KA relative to UGCAUGU
4,B20,0.114 KA relative to UGCAUGU
5,B21,0.0839 KA relative to UGCAUGU
6,B22,0.0515 KA relative to UGCAUGU
7,B23,0.114 KA relative to UGCAUGU
8,B24,0.124 KA relative to UGCAUGU
9,B25,0.137 KA relative to UGCAUGU
10,B26,0.0545 KA relative to UGCAUGU
11,B27,0.0602 KA relative to UGCAUGU
12,B28,0.0727 KA relative to UGCAUGU
13,B29,0.0514 KA relative to UGCAUGU
14,B30,0.0522 KA relative to UGCAUGU
15,B31,0.128 KA relative to UGCAUGU
